Measurements taken from the supplement of paper PMC3334620.
The full ranking holds about 33,000 sequences; the median of “E-score (-0.5 to 0.5)” is about -0.053, and the highest 2% start at about 0.37. The list shows a part of the results.

Target: Hap1 (UniProt P0CE41)
Assay: PBM E-score (8-mer binding enrichment) (E-score (-0.5 to 0.5)); higher = stronger / more preferred TF binding; most listed sequences are background and not binding sites
Conditions: protein concentration: 200 nM; construct: GST-DNA-binding domain
How it was run: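 Masliner-normalised scans of fluorescent anti-GST signal were the basis for scoring. That signal came from GST-tagged yeast transcription factors applied at about 100-200 nM to double-stranded universal all-10-mer Agilent arrays on fresh or once-stripped slides. Each ungapped eight-base word, pooled with its reverse complement, received an E-score from the Universal PBM Analysis Suite.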

Sequence of UniProt P0CE41 (P0CE41 whole entry): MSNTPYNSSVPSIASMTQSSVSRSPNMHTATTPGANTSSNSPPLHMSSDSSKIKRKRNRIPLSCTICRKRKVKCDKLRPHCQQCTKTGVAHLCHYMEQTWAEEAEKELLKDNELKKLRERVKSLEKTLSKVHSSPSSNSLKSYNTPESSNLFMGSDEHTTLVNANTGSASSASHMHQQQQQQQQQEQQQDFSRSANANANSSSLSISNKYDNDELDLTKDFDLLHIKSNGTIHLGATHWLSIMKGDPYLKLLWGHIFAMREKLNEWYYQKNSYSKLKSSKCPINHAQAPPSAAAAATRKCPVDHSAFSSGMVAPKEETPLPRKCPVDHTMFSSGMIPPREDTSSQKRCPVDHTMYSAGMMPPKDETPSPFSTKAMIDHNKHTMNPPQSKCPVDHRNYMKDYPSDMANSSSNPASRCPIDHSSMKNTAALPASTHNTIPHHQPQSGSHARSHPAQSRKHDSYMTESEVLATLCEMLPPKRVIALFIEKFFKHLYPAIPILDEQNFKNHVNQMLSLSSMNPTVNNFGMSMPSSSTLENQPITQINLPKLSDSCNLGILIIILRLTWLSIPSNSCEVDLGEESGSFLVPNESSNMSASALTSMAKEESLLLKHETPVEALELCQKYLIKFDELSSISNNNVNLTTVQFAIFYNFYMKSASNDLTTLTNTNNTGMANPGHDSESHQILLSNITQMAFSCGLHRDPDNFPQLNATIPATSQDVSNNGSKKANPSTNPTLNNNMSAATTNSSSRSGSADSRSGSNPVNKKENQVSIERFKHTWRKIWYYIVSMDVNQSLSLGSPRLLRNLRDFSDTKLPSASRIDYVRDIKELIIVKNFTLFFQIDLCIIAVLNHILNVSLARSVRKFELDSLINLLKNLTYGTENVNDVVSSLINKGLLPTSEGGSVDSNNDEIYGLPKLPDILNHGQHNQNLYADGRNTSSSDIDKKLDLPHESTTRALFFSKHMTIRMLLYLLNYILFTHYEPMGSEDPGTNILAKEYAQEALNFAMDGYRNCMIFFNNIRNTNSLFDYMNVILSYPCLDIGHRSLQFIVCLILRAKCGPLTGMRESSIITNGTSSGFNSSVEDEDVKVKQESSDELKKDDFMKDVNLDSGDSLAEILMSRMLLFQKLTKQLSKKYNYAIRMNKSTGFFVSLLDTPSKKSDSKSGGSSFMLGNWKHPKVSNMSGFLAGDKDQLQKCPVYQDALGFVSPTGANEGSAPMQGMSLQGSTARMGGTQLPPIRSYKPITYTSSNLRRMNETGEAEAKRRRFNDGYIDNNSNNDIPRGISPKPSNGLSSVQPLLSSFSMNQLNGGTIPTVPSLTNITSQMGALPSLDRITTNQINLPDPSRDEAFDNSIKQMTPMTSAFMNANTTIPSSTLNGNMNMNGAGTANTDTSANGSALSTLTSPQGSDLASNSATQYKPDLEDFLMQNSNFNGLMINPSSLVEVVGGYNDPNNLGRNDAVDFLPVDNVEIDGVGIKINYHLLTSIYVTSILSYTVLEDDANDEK

| Sequence | PBM E-score |
| --- | --- |
| AGTCCTAC | -0.0298 |
| AAACATAC | -0.169 |
| TCACGGGA | 0.0121 |
| AGATACAT | -0.166 |
| TGACAAAA | -0.195 |
| TGCGCCCA | -0.128 |
| AACTGTGA | -0.0694 |
| CCCGTCAG | -0.0937 |
| GGAAAGTA | 0.108 |
| ACCCCTCA | -0.108 |
| GAACCTGA | -0.163 |
| CAGCTTAA | -0.153 |
| GGACAACA | 0.00082 |
| ACCTTCGA | -0.0571 |
| ACACGACT | -0.267 |
| CATCGCAA | -0.282 |
| ATACATAG | -0.109 |
| CATGACAG | -0.164 |
| AACTTCAA | -0.124 |
| ATAAAACC | 0.257 |
| CTACGCGA | -0.0275 |
| ATAAGAGA | 0.0842 |
| GTGAAATA | -0.106 |
| GGACACCC | 0.0443 |
| GCAAGCGC | 0.134 |

| Sequence | PBM E-score |
| --- | --- |
| AAATGAGT | 0.0754 |
| ACGAAAGT | -0.0811 |
| AACCAATC | 0.0867 |
| AAGCGAGC | 0.0984 |
| TGGACCCA | -0.109 |
| TAAGCCCA | -0.143 |
| AACGTCCC | -0.179 |
| CCAGCTAC | -0.273 |
| CGATCGCC | 0.12 |
| GAAGTACA | -0.0425 |
| CACGCTAC | -0.158 |
| AAAGGAGC | -0.141 |
| GGGTCGGA | 0.32 |
| ACTGGTGG | -0.272 |
| GAACCTCA | -0.0572 |
| GTGGACAA | 0.0197 |
| CGAGTGTC | 0.00359 |
| AAGGGTCC | 0.2 |
| CTATTACA | -0.0557 |
| CAGCTTTA | -0.117 |
| AGCGCCTA | 0.00034 |
| CGGGTGTC | 0.15 |
| ACTAGCCA | -0.214 |
| AAGACTCC | -0.207 |
| ATAGCCTC | 0.0385 |

| Sequence | PBM E-score |
| --- | --- |
| AAACTTGG | -0.113 |
| TGTCAACA | -0.12 |
| GCCGGATA | 0.426 |
| GGGTTTCA | 0.148 |
| GGTCCCGA | 0.231 |
| CGCGCTAC | 0.0831 |
| ATGTAACC | 0.127 |
| CAGACAAC | 0.0282 |
| ACACGGAG | 0.295 |
| CTCTTTCC | 0.0348 |
| CCTACTGA | -0.267 |
| ACTCGGTG | 0.151 |
| GCACCGTA | 0.0692 |
| AATGATGT | -0.0372 |
| GAAGCCTC | -0.157 |
| TGAGTCCA | -0.0827 |
| GCCTTACC | 0.0429 |
| AGTTCCGG | 0.394 |
| AACTACAA | 0.0185 |
| GGTGCGGA | 0.214 |
| ACTCAGAG | -0.103 |
| TAGACATA | -0.16 |
| AGACTCAT | -0.231 |
| CGCACAAA | 0.123 |
| ACGAACCT | -0.0872 |

| Sequence | PBM E-score |
| --- | --- |
| ATTCGGAA | 0.311 |
| CTAGTATA | -0.149 |
| AGGGTACT | -0.218 |
| ATCCAGCG | 0.116 |
| CAAGTGGC | -0.22 |
| GCCAAGAA | -0.0284 |
| TCTCAAAA | -0.106 |
| CACCTGAC | -0.174 |
| ATAAGCTG | -0.113 |
| ATTCGGGG | 0.393 |
| CGGCTCCC | 0.12 |
| CGCGCTTC | 0.0627 |
| GGAGTAAA | 0.183 |
| ATCGCGCC | 0.22 |
| AACAGCTT | -0.106 |
| GGTTAGGA | -0.136 |
| AACCATAT | -0.189 |
| CGGAGCGA | 0.331 |
| TATCTCCA | 0.339 |
| CTATACAC | -0.309 |
| CTACTTGC | 0.0605 |
| AGAGGACG | -0.178 |
| CCTGCCAA | -0.128 |
| AACTAGCT | -0.211 |
| ATGCGTTC | 0.0351 |

| Sequence | PBM E-score |
| --- | --- |
| ATCGGAGA | 0.415 |
| GAACGGCC | 0.302 |
| AGTGCTAG | -0.227 |
| AATCTGTC | -0.0323 |
| GTGAACAA | -0.131 |
| ACGATACA | -0.216 |
| ACTACCCC | 0.0561 |
| AAACAGGG | -0.308 |
| AAGTCCTA | 0.0348 |
| ACCCCGAA | 0.377 |
| AAAGACGC | -0.0347 |
| ACGCTTGC | -0.152 |
| CCTATCAA | -0.119 |
| CAGCGGCG | 0.109 |
| TACTTAAA | -0.0354 |
| CGCAGGAA | 0.0505 |
| AACGCTGA | -0.121 |
| TGTAAAAA | -0.146 |
| CAGGATGA | -0.232 |
| CGCCGCAA | 0.275 |
| CGATTGCC | 0.102 |
| AGTGCACG | -0.144 |
| CAATATGC | -0.0574 |
| AGGTTTTA | 0.0786 |
| ATCGCGTC | 0.109 |

| Sequence | PBM E-score |
| --- | --- |
| ACTTGACT | -0.132 |
| CGCTCCTA | -0.107 |
| AGCAAAAG | -0.211 |
| CCTAGAAA | -0.00065 |
| AAGTGTAT | -0.251 |
| CTCGATAC | -0.14 |
| TCCCTGAA | -0.23 |
| CTAGTCTA | -0.377 |
| AACTCTAT | 0.0885 |
| AAATTCGT | 0.0977 |
| CCCGGTAA | 0.387 |
| ACTACTAA | -0.0511 |
| AATCTTTA | -0.0648 |
| ACCAGTTG | -0.0814 |
| AACCAGGA | -0.0608 |
| TAGCAAAA | 0.121 |
| GTGACCAC | -0.0879 |
| CTACCATA | -0.191 |
| CCTAGACC | -0.237 |
| AAAAGCTC | 0.104 |
| CGTGTAAA | -0.0672 |
| CTATAGAG | -0.188 |
| CCTTGGTC | -0.176 |
| CGCCACGC | -0.0605 |
| CACCAAAC | -0.252 |

| Sequence | PBM E-score |
| --- | --- |
| ACACGCAT | -0.0767 |
| ATTACTTG | -0.182 |
| ATGCGCTG | -0.0868 |
| CCCGTGGA | 0.154 |
| GAGGAACA | -0.0107 |
| CCCCCCAA | -0.161 |
| CCGCCGTA | 0.329 |
| CTGTGACC | -0.0925 |
| GCGCCTAC | 0.0211 |
| AGAAGGCG | -0.231 |
| CTGGATCC | 0.234 |
| GGGTGGGA | 0.0589 |
| AATACGGT | -0.015 |
| GAACTCTC | 0.0148 |
| GATCCTTA | -0.272 |
| GCGCCGAA | 0.359 |
| CATGATCC | 0.0708 |
| ACCCAGCC | -0.249 |
| GGCGGTCA | 0.183 |
| TAGTTAAA | 0.00327 |
| CCTACCTA | -0.201 |
| AAAGCCGA | 0.426 |
